Assay results as given in PubChem BioAssay (NCI).
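Five compound concentrations were applied to cells in 96-well plates for 48 hours; endpoints were derived by simple linear interpolation of the resulting dose-response curve. At the GI50, growth is halved. At the TGI there is no net growth.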

Tested on: NCI-H322M lung
Test: inhibition of tumour cell growth, NCI panel, 48 h

Compound	TGI [µM]	GI50 [µM]
BrC1(c2ccccc2)C[n+]2c(-c3ccccc3)cc(-c3ccccc3)cc2-c2ccccc21 (stereo not drawn)	14.6	–
OC1=CN=C(c2ccccc2)Oc2ccccc21	> 100	–
Cc1ccc(C(=O)Nc2ccc(Oc3cc4cnn(C)c4cc3-c3cn[nH]c3)c(F)c2)c(=O)n1-c1ccc(F)cc1	> 100	> 46.6
N=C(N)n1cc(/C=N/N=C(N)N)cn1	> 100	–
Cc1ccc(-n2c3nc(=O)n(C)c(=O)c-3nc3ccccc32)c(C)c1	29.8	–
COC(=O)C(Cc1ccccc1)NC(=O)C(CNC(=O)OCc1ccccc1)C(=O)OCc1ccccc1 (stereo not drawn)	> 100	–
CN1C(c2ccccc2)CC(O)CC1c1ccccc1 (stereo not drawn)	> 100	–
COc1cc2c(cc1OC)C1=C(C=O)c3ccc(OC)c(OC)c3C(O)N1CC2 (stereo not drawn)	> 100	–
O=C1c2ccccc2-c2c1c1ccccc1c(=O)n2CCCNCCNCCCn1c2c(c3ccccc3c1=O)C(=O)c1ccccc1-2	2.64	0.265
O=C1Nc2ccc(-c3cccnc3)cc2/C1=C/c1cc(Br)c(O)c(Br)c1	> 25	7.1
Cc1ccc(S(=O)(=O)N/N=c2/sc3ccccc3n2C)cc1	> 100	–
C[n+]1cn(CC(=O)c2ccccc2)c(C(N)=O)c1N	> 100	–
[O-][n+]1c2cccc(O)c2[n+]([O-])c2cccc(O)c21	> 100	–
COC(=O)CCC(C)[C@H]1CCC2C3CC[C@@H]4CC5(CC[C@]4(C)C3C[C@H](OC(C)=O)[C@@]21C)OOC1(CCCCC1)OO5 (stereo partly drawn)	> 100	–
O=C(Nc1ccc(-n2cc(-c3ccncc3)c(-c3ccc(O)c(Cl)c3)n2)cc1)Nc1cc(C(F)(F)F)cc(C(F)(F)F)c1	11.5	2.96
NC1=NC(c2ccccc2Cl)c2c(n[nH]c2N)N1 (stereo not drawn)	> 100	40.2
Cc1cc(OC2OC(CO)C(O)C(O)C2O)ccc1O (stereo not drawn)	> 100	–
CCC(Oc1ccc(OC)c2c1C(=O)CCC2)C(=O)O (stereo not drawn)	> 100	–
O=c1[nH]nc(Nc2ccc(Cl)cc2)c2nnn(C3CCCCC3)c12	> 100	–
CO[C@H]1C(=O)[C@]2(C)[C@@H](OC)C[C@H]3OC[C@@]3(OC(C)=O)[C@H]2[C@H](OC(=O)c2ccccc2)[C@]2(O)C[C@H](OC(=O)[C@H](O)[C@@H](NC(=O)OC(C)(C)C)c3ccccc3)C(C)=C1C2(C)C	> 100	< 0.01
Cn1cc(-c2ccc3ncc(-c4ccc(CC(=O)Nc5cc(C(C)(C)C)nn5C)cc4)cc3c2)cn1	> 20	0.57
COC(=O)[C@]12CC[C@@H](C)[C@H](C)[C@@H]1C1=CC[C@@H]3[C@@]4(C)C(C=O)=C[C@@](C)(COS(C)(=O)=O)C4=CC[C@@]3(C)[C@]1(C)CC2	3.21	0.515
COC(=O)c1c(O)ccc2c1c1c(n2Cc2ccc(OC)cc2)C(=O)c2ccccc2C1	> 100	–
O=C(N/N=C/c1ccccc1)c1c(F)c(F)c(F)c(F)c1F	> 100	–

Compound	TGI [µM]	GI50 [µM]
COC(=O)c1ccc(NC(N)=NCCC(C)(C)c2ccc(C(F)(F)F)cc2)nc1	15.1	3.29
C#Cc1cccc(NC(=O)/C=C\C(=O)O)c1	> 100	–
C/C(CCN(C)C)=N/O	79.9	–
CC(C)(C)C1=NO[C@H]2[C@@H](NC(=O)c3ccccc3)CC[C@@H]12	> 100	–
Cc1ccc(S(=O)(=O)Nc2ccccc2C(C)(C)C)cc1	60.5	–
O=C1Nc2noc(=O)nc2NO1	> 200	–
NC(=O)CSc1nc2ccccc2c(=O)n1N	> 100	–
Cc1cc(-c2ccc(N=Nc3ccc4c(S(=O)(=O)O)cc(S(=O)(=O)O)c(N)c4c3O)c(C)c2)ccc1N=Nc1ccc2c(S(=O)(=O)O)cc(S(=O)(=O)O)c(N)c2c1O	> 100	–
O=C(Nc1ccc(-n2cc(-c3ccncc3)c(-c3ccc(Cl)c(O)c3)n2)cc1)c1cc(C(F)(F)F)cc(C(F)(F)F)c1	> 100	17.3
CCCCCCCCCCCCCC(=O)O[C@H]1CC[C@H](NC(=O)[C@H](OC)[C@H](O)[C@@H](O)[C@H](O)/C=C/C(C)C)C(=O)N(C)C1	> 23.8	0.02
CC[C@]1(c2ccc3c(c2)OCO3)C=[N+]([O-])O[C@H](OC2CCCC2(c2ccccc2)c2ccccc2)[C@@H]1OC(C)=O (stereo partly drawn)	8.68	–
O=C(O)CCCc1ccc2c(c1)C(C(=O)O)CC2 (stereo not drawn)	> 100	–
CCNC(=S)N/N=C(/C)c1cccc(/C(C)=N\NC(=S)NCC)n1	> 73	–
Cc1ccc(C(=O)Nc2ccc(CP(=O)(O)O)cc2CP(=O)(O)O)cc1N	> 100	–
CCCCCCCCCCCC1=C(O)C(=O)C(CC2=C(O)C(=O)C(CCCCCCCCCCC)=C(O)C2=O)=C(O)C1=O	> 100	–
O=C(/C=C/c1ccccc1)c1cc(CN2CCOCC2)c(O)c(CN2CCOCC2)c1	48.8	–
CN(Cc1cnc2nc(N)nc(N)c2n1)c1ccc(C(=O)NC(CCC(=O)O)C(=O)O)c2ccccc12 (stereo not drawn)	> 1000	–
COC(=O)C1CCC(C)CC1=O (stereo not drawn)	> 100	–
CCOC(=O)c1cn(C)c2c(OC)c3ccccc3c(OC)c2c1=O	74.7	24
CCOC1c2nc3ccccc3nc2-c2ccccc2N1C(C)=O (stereo not drawn)	> 100	–
O=c1[nH]c2ccccc2cc1-c1nnc(Cc2ccccc2)o1	34.4	15.8
N#CN1CC[C@H](C(=O)Nc2ncc(-c3ccccc3)s2)C1	3.43	1.78
C=CCOC(C)(C)C1=CCC(C)CC1 (stereo not drawn)	> 100	–
Cc1ccc(S(=O)(=O)NC(=O)Nc2ccc(C(=O)O)cc2)cc1	> 100	–

Compound	TGI [µM]	GI50 [µM]
C#COc1cccc(Nc2ncnc3cc(NC(=O)[C@@H](C)Cl)ccc23)c1	> 62.5	23
COc1ccc(O[C@H](CO)C[C@@H]2COC(C)(C)O2)cc1	> 100	–
Cc1nc(C(=Nc2ccc(Br)cc2)Nn2cnnc2)no1	> 100	–
CCOC(=O)N1CCNCCN(C(=O)OCC)CCNCC1	> 100	–
CCN(CC)CCCC(Nc1c2ccc(Cl)cc2nc2ccc(OC)cc12)c1ccc(Cl)cc1 (stereo not drawn)	3.28	1.73
C/C(=N\NC(=S)NC(C)(C)C)c1nc2ncccc2[nH]1	> 100	–
CC(C)C(NCc1c2ccccc2[n+](C)c2ccccc12)C(=O)O (stereo not drawn)	26.9	–
COc1cc2c(cc1O)NC(=O)[C@@H]1C[C@@H](O)CN1C2=O	> 100	–
CCc1ccc(Oc2c(-c3ccc(OCc4ccc(Cl)cc4)cc3O)nn(C)c2C(F)(F)F)cc1	4.17	1.43
O=C(CI)NC(=O)NC(=O)NCc1ccccc1	29.4	15.1
CN(C)CCCOc1ccc(NC2=C(Cl)C(=O)C(Nc3ccc(OCCCN(C)C)cc3)=C(Cl)C2=O)cc1	2.73	1.3
CC(=O)Oc1cc2c(cc1OCC(F)(F)F)[C@H]1CC[C@]3(C)[C@@H](OC(C)=O)CC[C@H]3[C@@H]1CC2=O	38.6	–
Cc1nc2sccn2c1C(=O)NNC(N)=S	> 100	–
COc1cc([C@@H]2c3cc4c(cc3[C@H](SC(=N)N)[C@H]3COC(=O)[C@H]23)OCO4)cc(OC)c1OC	> 100	0.504
COc1cc2c(c3c1c(=O)c1ccccc1n3C)C=C([N+](=O)[O-])C(C)(C)O2	> 100	–
Cn1c(CO)ccc1-c1ccc(-c2ccc(CO)[se]2)[se]1	> 100	–
O=C1C2C(C(=O)N1Cc1ccccc1)N(Cc1ccccc1)C(=O)N2Cc1ccccc1 (stereo not drawn)	> 100	–
CCc1c(OC(C)=O)c2c(NC3OC(COC(C)=O)C(OC(C)=O)C(OC(C)=O)C3OC(C)=O)nc(SC)nc2oc1=O (stereo not drawn)	> 100	–
O=C(Nc1nc(=S)[nH][nH]1)C(=O)C(c1cnc2ccc([N+](=O)[O-])cc2n1)[N+](=O)[O-] (stereo not drawn)	> 100	–
COc1ccc2oc(=O)c(-c3cc4c(c(C)n3)c(=O)oc3ccc(OC)cc34)cc2c1	> 100	–
CN(C)CCNC(=O)Nc1ccc(N(C)c2ccnc(Nc3ccc(CS(C)(=O)=O)cc3)n2)cc1	> 25	> 25
Nc1c(C(=O)O)c2ccc([N+](=O)[O-])cc2c(=O)n1-c1nc2ccccc2s1	> 100	–
N#Cc1cc(F)cc(Oc2ccc(S(=O)(=O)C(F)F)c3c2CC(F)(F)[C@H]3O)c1	> 100	60.6
O=C(/C=C\c1ccccc1)Oc1ccc(/C=C2\CCC/C(=C\c3ccc(OC(=O)/C=C\c4ccccc4)cc3)C2=O)cc1	> 100	–

Compound	TGI [µM]	GI50 [µM]
O=c1c2[nH]cnc2n(-c2ccccc2)c(=S)n1-c1ccccc1	> 100	–
CC(C)=CC1C(C(=O)OCc2cc3c(cc2Cl)OCO3)C1(C)C (stereo not drawn)	> 100	–
CCOC(=O)C1=C(C)N(NC(N)=O)C2(N)N(NC(N)=O)C(C)=C(C(=O)OCC)C12C#N (stereo not drawn)	> 100	–
O=C(CCCCN1CCN(CCCCC(=O)Nc2ccccc2C#C/C=C\C#Cc2ccccc2C(F)(F)F)CC1)Nc1ccccc1C#C/C=C\C#Cc1ccccc1C(F)(F)F	> 50	27.3
O=C(Nc1nc2ccc(S(=O)(=O)Nc3ccc(C4(C(F)(F)F)CC4)cc3)cc2[nH]1)c1cnccn1	19.1	6.1
O=[N+]([O-])/C=C/c1ccc2ccccc2c1	> 60.7	–
CC(=O)c1c(-c2ccc(Cl)cc2)c(C#N)c(=S)n(C2OC(CO)C(O)C(O)C2O)c1C (stereo not drawn)	> 100	–
Cc1n[nH]c(=O)n1-n1cccc1	> 100	–
O=C(O)c1ccccc1C(=O)c1ccco1	> 100	–
COc1ccccc1N=Nc1c(O)ccc2ccccc12	> 100	–
COc1cccc(-c2cc(=O)c3cc(N4CCN(C)CC4)ccc3[nH]2)c1	28	2.61
COc1cc2c(cc1O)C(Cc1ccc(OCc3ccccc3)c(OCc3ccccc3)c1)N(C(=O)NCCc1ccccc1)CC2 (stereo not drawn)	> 100	–
CC(C)(C)OC(=O)N[C@H]1CC(=O)c2ccccc2N(CC(=O)O)C1=O	> 100	–
CCCCCCCCCC1CC(=O)OC23CCCC(=O)C12O3 (stereo not drawn)	> 100	–
Nc1ncnc2c1c(-c1ccc(Oc3ccccc3)cc1)nn2CC1SSCC1O (stereo not drawn)	12.2	3.21
O=C1OC(=O)c2c1nc1ccccc1c2-c1ccccc1	> 100	–
CC(=O)CCC1(C(=O)OCC(C)C)CCCC1=O (stereo not drawn)	> 100	–
[C-]#[O+].[Cl][Sn]([Cl])[Cl].[Cl][Sn]([Cl])[Cl].[Pt].c1cnc2c(c1)ccc1cccnc12	27.4	–
O=c1[nH]c(=S)[nH]c(O)c1/C=C1\C=Nc2ccccc21	65.1	16.9
CCCCCCCCCCCCCCCC(=O)OCC1OC(n2cc(F)c(=O)[nH]c2=O)C(NC(=O)OCc2ccccc2)C(O)C1O (stereo not drawn)	47.5	–
CN(C)C1C(=O)C(C(N)=O)=C(O)C2(O)C(=O)C3=C(O)c4c(O)cccc4C(C)(O)C3CC12.[Cl][Sb]([Cl])[Cl] (stereo not drawn)	11.7	3.38
Cc1ccc2ccc3c4ccccc4ccc3c2c1	> 100	46.9
